Test results: PubChem BioAssay AID588342 (National Center for Advancing Translational Sciences (NCATS), 2011)
Hit rate of the full screen: of about 360,000 compounds, about 25,000 (6.9%) were called active. The inconclusive results got no clear call from the source; some entries with a clear call stand among them for comparison. Calls follow the shape of the dose curve; as a rule, active = well fitted inhibition curve with a large enough effect; inconclusive = small, poorly fitted or top-dose-only effect; inactive = flat fitted curve, though single readings scatter. Potencies beside an inconclusive call are fits to weak or partial responses and may not hold up.
Also: nearly all actives have a fitted effect of over 55% in size.
Potency is read from the fitted curve at half-maximal effect; tags tell the direction and shape of the fitted curve.

Each molecule was assayed against Luciferin 4-monooxygenase (Photinus pyralis) (UniProt P08659) (assay: qHTS profiling assay for firefly luciferase inhibitor/activator using purifed enzyme and Km concentrations of substrates (counterscreen for miR-21 project)). Conditions: purified FLuc, luminescence inhibition; series mostly up to 57.5 µM.
Chain of UniProt P08659 (P08659 whole entry, looked up): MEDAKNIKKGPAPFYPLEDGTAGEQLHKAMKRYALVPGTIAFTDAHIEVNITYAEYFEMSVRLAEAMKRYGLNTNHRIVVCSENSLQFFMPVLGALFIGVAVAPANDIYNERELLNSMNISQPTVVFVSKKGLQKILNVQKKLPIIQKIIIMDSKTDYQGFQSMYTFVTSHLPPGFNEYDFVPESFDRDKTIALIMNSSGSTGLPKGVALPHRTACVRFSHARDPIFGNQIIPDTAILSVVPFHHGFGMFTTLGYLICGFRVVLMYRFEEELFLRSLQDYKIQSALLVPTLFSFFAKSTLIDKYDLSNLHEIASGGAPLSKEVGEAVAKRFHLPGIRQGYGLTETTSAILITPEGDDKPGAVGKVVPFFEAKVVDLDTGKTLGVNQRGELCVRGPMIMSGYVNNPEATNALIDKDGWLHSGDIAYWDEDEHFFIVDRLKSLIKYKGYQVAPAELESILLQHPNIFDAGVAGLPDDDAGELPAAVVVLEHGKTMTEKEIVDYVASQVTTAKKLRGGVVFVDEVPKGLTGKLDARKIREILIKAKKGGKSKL
Procedure, shortened: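 Biochemical qHTS of compounds, final roughly 60 µM downward over six points, against 10 nM purified firefly luciferase using Km concentrations of substrates (10 uM D-luciferin, 10 uM ATP) in Tris acetate pH 7.5 buffer; luminescence output.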
For `CC(=O)c1ccc(N2CCN(C(=O)c3cc(S(=O)(=O)N4CCCCCC4)cn3C)CC2)cc1`, the Potency was inconclusive: 16.9 µM [inhibitor, partial curve].
In the case of `O=C(CCC1CCCCC1=O)c1ccccc1` (stereo not given), the Potency is reported as inconclusive: 21.3 µM [inhibitor, single point].
With `O=C(NCCc1csc(-c2cccc(F)c2)n1)C(=O)Nc1cc(F)ccc1F` the Potency was “inactive”.
In the case of `O=C(NCc1ccccc1)c1onc(CSc2ccccc2)c1C(=O)NCC1CC1`, the Potency is reported as “inactive”.
With `CCc1cc(/C(Cc2ccccn2)=N\Nc2ccccc2)c(O)cc1O` the Potency was inconclusive: 37.9 µM [inhibitor, partial curve, poor fit].
In the case of `Cc1coc2cc3oc(=O)c(CCC(=O)N[C@@H](CCCNC(N)=O)C(=O)O)c(C)c3cc12`, the Potency is reported as “inactive”.
With `Cc1cc(-n2c(C)cc(C(=O)COc3ccccc3[N+](=O)[O-])c2C)no1` the Potency was inconclusive: 37.9 µM [inhibitor, partial curve, poor fit].
In the case of `O=C(Nc1ccccc1C(=O)O)c1ccc(NC(=O)c2ccc(Br)o2)cc1`, the Potency is reported as inconclusive: 30.1 µM [inhibitor, single point].
In the case of `COc1ccc2c(CC(=O)NCc3cccs3)coc2c1`, the Potency is reported as inconclusive: 19 µM [inhibitor, partial curve, poor fit].
For `CN1CCSc2ccc(C(=O)Nc3ccc(Cl)cc3)cc21`, the Potency was inconclusive: 0.953 µM [inhibitor, full curve, poor fit].
`COc1ccc2nc(NNC(=O)c3cc(=O)c4ccccc4o3)sc2c1` was tested, and the Potency was active: 2.69 µM.
With `COC(=O)Cc1c(C)nc2nc(-c3ccc(Cl)cc3)[nH]n2c1=O` the Potency was active: 10.7 µM.
For `CCCCC(=O)Nc1cc2nn(-c3ccc(OC)cc3)nc2cc1C`, the Potency was inconclusive: 0.301 µM [inhibitor, full curve].
In the case of `Cc1c(C(=O)N2CC(C)OC(C)C2)sc2nc(-c3ccccc3)cn12` (stereo not given), the Potency is reported as inconclusive: 37.9 µM [inhibitor, partial curve, poor fit].
`COc1ccccc1NC(=S)NNC(=O)c1cc(C)nn1C` was tested, and the Potency was inconclusive: 21.3 µM [inhibitor, partial curve].
For `O=C(COc1ccc(Cl)cc1)Nc1nc(-c2cccs2)cs1`, the Potency was inconclusive: 23.9 µM [inhibitor, single point].
For `Cc1ccccc1OC(=O)c1cc(-c2ccc3c(c2)OCCO3)on1`, the Potency was active: 0.601 µM.
`Cc1ccc(-c2nc(NCc3ccco3)c3ccccc3n2)cc1` was tested, and the Potency was inconclusive: 33.8 µM [inhibitor, single point].
`O=C(c1cc2ccccc2o1)N1CCN(Cc2ccccc2)CC1` was tested, and the Potency was inconclusive: 23.9 µM [inhibitor, single point].
For `O=C(Nc1ccccc1C(=O)O)c1ccccc1`, the Potency was inconclusive: 23.9 µM [inhibitor, partial curve].
`Cc1nc(-c2ccc(Cl)cc2)sc1C1(C)CC(c2cccc([N+](=O)[O-])c2)=NO1` (stereo not given) was tested, and the Potency was inconclusive: 37.9 µM [inhibitor, single point].
`C[C@]12CC[C@@H]3c4ccc(OS(=O)(=O)O)cc4CC[C@H]3[C@@H]1CCC2=O` was tested, and the Potency was inconclusive: 37.9 µM [inhibitor, partial curve, poor fit].
`C/C=C/C=C\C(=O)Nc1cccc(C2=NOC3(C2)C[C@@H](C(N)=O)N(C(=O)/C(C)=C/C)C3)c1` (stereo not given in full) was tested, and the Potency was inconclusive: 21.3 µM [inhibitor, partial curve].
With `CC(Cc1cccs1)NC(=O)Nc1cccc(Cl)c1` (stereo not given) the Potency was inconclusive: 23.9 µM [inhibitor, single point].
For `CCS(=O)(=O)N1Cc2ccccc2CC1C(=O)Nc1ccc(OC)cc1` (stereo not given), the Potency was inconclusive: 23.9 µM [inhibitor, partial curve, poor fit].
`Cc1ccc(C(=O)Nc2nnc(S(=O)(=O)N(C)Cc3ccc(Cl)cc3)s2)cc1` was tested, and the Potency was “inactive”.
With `COc1ccc(NC(=O)c2csnn2)cc1Cl` the Potency was inconclusive: 37.9 µM [inhibitor, partial curve, poor fit].
`COC(=O)c1ccc(COC(=O)c2cccn2C)o1` was tested, and the Potency was inconclusive: 37.9 µM [inhibitor, partial curve, poor fit].
For `O=[N+]([O-])c1cc(Br)c(O)c(/C=N/Nc2nnnn2-c2cccc3ccccc23)c1`, the Potency was “inactive”.
`Cn1c(=O)n(C)c2cc(NC(=O)c3ccc(F)cc3)ccc21` was tested, and the Potency was inconclusive: 23.9 µM [inhibitor, partial curve, poor fit].
With `COc1ccccc1NC(=O)CSc1oc(-c2ccco2)nc1S(=O)(=O)c1ccc(C)cc1` the Potency was “inactive”.
In the case of `CCOc1ccc(NC(=O)c2oc3ccccc3c2NC(=O)C(C)(C)C)cc1`, the Potency is reported as “inactive”.
For `COc1ccc(Br)cc1/C=C/c1ccc2cccc(O)c2n1`, the Potency was inconclusive: 13.5 µM [inhibitor, partial curve].
For `CN(C)c1ccc(C(C(=O)NCC2CCCO2)N(C(=O)c2snc(C(N)=O)c2N)c2ccc3c(c2)OCO3)cc1` (stereo not given), the Potency was “inactive”.
For `CCOc1ccc2nc(N3CCCC(C(=O)Nc4ccc(OC)cc4)C3)sc2c1` (stereo not given), the Potency was active: 1.51 µM.
`O=C(c1cc(-c2cccc(O)c2)on1)N1CCOCC1` was tested, and the Potency was active: 6.75 µM.
With `COc1ccc(CCNC(=O)c2c(O)nc3ccccn3c2=O)cc1OC` the Potency was “inactive”.
With `O=C(Nc1ccc(Br)cc1)c1cccc(N2C(=O)C3CCCCC3C2=O)c1` (stereo not given) the Potency was inconclusive: 37.9 µM [inhibitor, partial curve, poor fit].
`O=[N+]([O-])c1ccc(Cl)c(S(=O)(=O)Nc2ccc(-c3ccc(N4CCCC4)nn3)cc2)c1` was tested, and the Potency was active: 21.3 µM.
With `Cc1ccc(C(=O)Nc2cccc(C(=O)N3CCOCC3)c2)cc1Cl` the Potency was active: 9.53 µM.
With `COc1cc(C(=O)OCC(=O)c2ccccc2)cc2c1OCCO2` the Potency was inconclusive: 21.3 µM [inhibitor, single point].
For `Cc1cccc(C(=O)Oc2ccc(/C=N/NC(=O)c3ccc(O)cc3)cc2)c1`, the Potency was inconclusive: 8.49 µM [inhibitor, partial curve, poor fit].
For `Clc1ccc(-c2cc3ncc4c(n3n2)-c2ccccc2OC4)cc1`, the Potency was “inactive”.
In the case of `CNS(=O)(=O)c1cccc(C(=O)OCCCOC(=O)c2cccc(S(=O)(=O)NC)c2)c1`, the Potency is reported as “inactive”.
`O=C(CN1C(=O)c2ccccc2S1(=O)=O)c1ccc(O)c(O)c1` was tested, and the Potency was “inactive”.
For `COc1cc(NC2c3ccccc3C(=O)N2c2ccc(C)cn2)cc(OC)c1OC` (stereo not given), the Potency was inconclusive: 13.5 µM [inhibitor, partial curve].
In the case of `Cc1cc(Nc2ccc3ccccc3c2)n2ncnc2n1`, the Potency is reported as inconclusive: 21.3 µM [inhibitor, partial curve].
With `Nc1cc(N)nc(SCc2ccc(Cl)cc2)n1` the Potency was inconclusive: 15.1 µM [inhibitor, partial curve].
For `CCOc1ccccc1NC(C)C(=O)NC(=O)NC1CCCCC1` (stereo not given), the Potency was “inactive”.
In the case of `O=C(Nc1ccc2c(c1)OCCO2)c1cccnc1`, the Potency is reported as inconclusive: 19 µM [inhibitor, partial curve].
For `COc1ccc(OCc2ccc(C(=O)O)cc2)cc1`, the Potency was active: 6.75 µM.
`COC(=O)c1cnc(Nc2cc(C)ccc2OC)c2ccccc12` was tested, and the Potency was “inactive”.
In the case of `O=C(/C=C/c1ccc(F)cc1)N1CCCN(C(=O)/C=C/c2ccc(F)cc2)CC1`, the Potency is reported as inconclusive: 23.9 µM [inhibitor, partial curve, poor fit].
For `CCc1ccc(NC(=O)c2sc(-n3nc(C)c(CCC(C)C)c3C)nc2C)cc1`, the Potency was “inactive”.
`CCOc1ccc(NC(=O)CSc2ccccc2N)cc1` was tested, and the Potency was inconclusive: 26.9 µM [inhibitor, single point].
In the case of `Cc1ccc(-c2c3c(=O)n(C)c(=O)n(C)c3cn2Cc2ccccc2)cc1`, the Potency is reported as inconclusive: 30.1 µM [inhibitor, partial curve, poor fit].
With `CCOc1ccc(NC(=O)Nc2ccon2)cc1` the Potency was active: 23.9 µM.
With `O=C(Nc1ccc2oc(-c3ccccc3F)nc2c1)c1ccccc1F` the Potency was active: 4.78 µM.
`Cc1c(C(=O)/C=C/N(C)C)nnn1-c1ccc(Cl)cc1Cl` was tested, and the Potency was inconclusive: 30.1 µM [inhibitor, partial curve, poor fit].
With `Cc1cc(NC(=O)c2ccccc2F)ccc1-c1nc2ccccc2s1` the Potency was active: 0.675 µM.
With `N#Cc1c(NC(=O)c2cc(C3CC3)on2)sc2c1CCC2` the Potency was inconclusive: 26.9 µM [inhibitor, single point].
For `O=C(/C=C/c1cccs1)Nc1cccc(NC(=O)/C=C/c2cccs2)n1`, the Potency was active: 1.9 µM.
With `CC(=O)c1ccc(OCc2cc(C(=O)N(C)C(C)c3nccs3)no2)cc1` (stereo not given) the Potency was inconclusive: 26.9 µM [inhibitor, partial curve].
In the case of `O=C(Nc1nc(-c2cc(F)ccc2F)cs1)c1ccccn1`, the Potency is reported as inconclusive: 8.49 µM [inhibitor, partial curve, poor fit].
`O=C(Cn1c(=O)oc2ccccc21)Nc1ccc(Cl)cc1Cl` was tested, and the Potency was inconclusive: 42.6 µM [inhibitor, partial curve, poor fit].
With `COc1ccc(O)c(-c2cc(-c3ccc(F)cc3)n[nH]2)c1` the Potency was active: 15.1 µM.
In the case of `CN1/C(=C\C(=O)Nc2ccc(F)cc2)C(C)(C)c2ccccc21`, the Potency is reported as inconclusive: 21.3 µM [inhibitor, partial curve, poor fit].
With `COc1cccc(/C=C/C(=O)OCC(=O)c2ccc3c(c2)NC(=O)CO3)c1OC` the Potency was “inactive”.
With `COc1cc(OC)cc(C(=O)O/N=C(\N)c2ccncc2)c1` the Potency was inconclusive: 23.9 µM [inhibitor, partial curve, poor fit].
For `O=C1CN(C(=O)c2cc3ccccc3o2)c2ccccc2N1`, the Potency was inconclusive: 26.9 µM [inhibitor, partial curve, poor fit].
